The other results are listed elsewhere or left out.
system: T1, C. trachomatis L2/434/Bu expressing GFP (CTL2-GFP); set-up: species or system HeLa; C. trachomatis total inclusion area by high-content imaging, normalised to DMSO; settings: total inclusion area; 28.5 h, 10 µM; inhibitor
T1 construct: L2/434/Bu GFP intracellular growth in HeLa cells
How it was run: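 Post-fluorescence-read fixation, DNA staining with Hoechst and high-content imaging; GFP inclusion area and number per well, and nuclei counts, used as proxies for bacterial growth and host viability.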

SMILES	% of control remaining
Cc1ccc(S(=O)(=O)NC2c3cccc4cccc(c34)C2Sc2ccccn2)cc1 (centres unmarked) [CBK265840]	52.6682
Cc1cccc(-c2noc([C@@H]3C[C@@H](O)CN3Cc3ccccn3)n2)c1 [CBK288837]	103.696
CC(C)(C)S(=O)(=O)Cc1noc(-c2ccc(Cl)nc2)n1 [CBK089825]	30.9353
Cc1cccc(C2(O)CCN(C(=O)CCCc3ccncc3)CC2)c1 [CBK282506]	100.621
O=C(O)c1ccc(-c2ccc(N3CCN(C(=O)c4ccco4)CC3)nc2)cc1 [CBK037700]	99.4794
O=C1CN(c2nc(-c3ccncc3)nc3ccccc23)CCN1 [CBK305805]	90.0336
COc1ccc2c(c1)CC(C(=O)N1CCc3sccc3C1c1cccs1)CO2 (centres unmarked) [CBK285628]	47.703
CC(=O)NCCn1cc2c(n1)[C@H]1CN(C(=O)CC(C)(C)C)C[C@H]1CC2 [CBK284592]	84.0556
COCC1CCCN1C(=O)c1cnn2c(C)c(Cc3cccc(C#N)c3)c(C)nc12 (centres unmarked) [CBK162099]	95.0515
CCOc1n[s+]([O-])nc1Nc1cc(Cl)cc(Cl)c1 (centres unmarked) [CBK007897]	51.5865
COc1ccc(CN2CCCN(C(=O)c3cccc(C#N)c3)CC2)cc1 [CBK305281]	15.3102
CC(C)CNc1nccnc1-c1ccc(Cl)cc1 [CBK088738]	101.391
Cc1csc(C(Cc2ccsc2)NC(=O)CC2CCCO2)n1 (centres unmarked) [CBK282227]	107.994
CCN1CCN(c2ncnc3sc(C)c(C)c23)CC1 [CBK288101]	84.0594
COc1ccc(-c2cnc(N)c(-c3ccc(C=O)cc3)n2)cn1 [CBK064096]	91.182
O=C(Cn1cc(C(=O)NC2CCCCC2)ccc1=O)NCC1(c2ccccc2Cl)CC1 [CBK286101]	127.16
O=C1NCCCc2nc(Nc3ccccc3)sc21 [CBK087091]	84.6421
Cn1ncc2c1CCCN(C(=O)COc1cccc(F)c1)C2 [CBK285257]	103.204
CN(C)c1cccc2c(S(=O)(=O)n3ccn(-c4cccc(C(F)(F)F)c4)c3=O)cccc12 [CBK106578]	90.8767
CC(=O)Nc1ccc(S(=O)(=O)NCCC#N)cc1Cl [CBK044272]	87.4862
Cc1ccc([N+](=O)[O-])cc1NC(=O)CCn1cnc2ccccc2c1=O [CBK267644]	100.198
COC(=O)[C@@H](C)NC(=O)[C@H]1CN(C(=O)Nc2ccccc2)CCN1C(=O)NC(C)C [CBK289631]	103.457
COC(=O)c1ccc(N2CCOCC2)c(NC(=O)c2cccnc2)c1 [CBK270257]	68.4578
CC(C)(C)c1ccc(C(=O)CC(C(=O)O)N2CCN(c3cccc(Cl)c3)CC2)cc1 (centres unmarked) [CBK077385]	73.0216
O=C(O)CCSc1nc(-c2ccccc2)c(-c2ccccc2)[nH]1 [CBK264228]	105.414

SMILES	% of control remaining
COc1ccc(CNC(=O)c2sccc2S(=O)(=O)N2CCCCC2)cc1 [CBK305904]	98.6036
O=C(c1ccccc1F)N1CCCC1Cn1c(=O)oc2ccccc21 (centres unmarked) [CBK282926]	102.262
CC(=O)NCCNS(=O)(=O)c1ccc(C(C)C)cc1 [CBK043726]	115.541
c1ccc(CNc2c(-c3ccco3)nc3cnccn23)cc1 [CBK283933]	90.0851
COC(=O)c1cc(C)sc1NC(=S)Nc1cnn(Cc2cccc3ccccc23)c1 [CBK267098]	125.155
Cc1cc(C)n(CC2CN(CC(=O)NCc3cccs3)CCO2)n1 (centres unmarked) [CBK304902]	106.758
Cc1sc(NC(=O)c2ccc3c(c2)OCCO3)c(C(=O)NCc2cccnc2)c1C [CBK268181]	92.8984
COc1cccc(/C=C2/NC(=O)N(c3cccc(Cl)c3)C2=O)c1OCc1cccc(C(=O)O)c1 [CBK265626]	109.558
Cc1nnc(Sc2ccc([N+](=O)[O-])cc2Cl)n1Cc1ccccc1 [CBK269694]	98.8943
CN1C(=O)c2ccccc2OCCCCC[C@H]2[C@@H]1CCCN2C(=O)c1cc2c([nH]c1=O)CCC2 [CBK292034]	104.281
Cc1cc2ncn(CC(=O)N3CCC(F)CC3)c2cc1C [CBK200266]	86.9553
CCCC1=NN(c2ccc([N+](=O)[O-])cc2)C(=O)/C1=C/NC1CC(C)(C)NC(C)(C)C1 [CBK262896]	100.634
COc1ccc(CN2CCC3(CCc4ccccc4C(=O)N3)C2)cc1 (centres unmarked) [CBK283339]	93.3638
Cn1c(CCC(=O)NCC(C)(C)N2CCCCC2)nc2ccccc21 [CBK281877]	102.36
CC(=O)Nc1ccc(OC(=O)CSc2nc(C)cc(C)n2)cc1 [CBK266707]	127.835
Cc1noc(C)c1C(=O)N1CCC[C@H](C(=O)c2ccc(F)cc2)C1 [CBK284334]	78.1423
COc1cc(CN(C)CCc2ccccn2)c([N+](=O)[O-])cc1OC [CBK261737G]	107.149
COc1ccc(-c2cc(C(=O)NCCc3ccncc3)cnc2-c2cccc(C)c2)cn1 [CBK037489]	71.8857
CC(C)C(=O)Nc1ccc2c(c1)C(=O)N(CCC(=O)O)C2=O [CBK286544]	92.1168
O=C(NCc1ccc2c(c1)OCO2)c1ccc2[nH]ccc2c1 [CBK161750]	135.136
N#Cc1c(-c2ccccc2)cc(-c2ccccc2)nc1SCC(=O)O [CBK131684]	91.0451
Cc1cc(C)n(CC(O)CN(Cc2ccco2)Cc2cccs2)n1 (centres unmarked) [CBK282979]	100.081
COc1cccc(-c2cc(C(=O)NCCCN3CCOCC3)c3ccccc3n2)c1 [CBK262630]	111.613
CCCNCC(=O)N1CN(C(=O)c2ccc(C)cc2)C(C)(C)C1 [CBK089572C]	79.3407
O=C1CC(NCC2CCCO2)C(=O)N1c1ccc(N2C(=O)CC(NCC3CCCO3)C2=O)cc1 (centres unmarked) [CBK263962]	99.8942
